In the supplement of paper PMC7238544:
Where a name gives a salt, the structure may show the parent alone. ± gives the standard deviation of the averaged measurements. The list shows a part of the results.

Experiments:
Conditions in all cases: priming compound concentration 100 µM
hAMSC donor 1 [1] = test: Hoechst total cell count ratio vs vehicle control; higher = more cells (less toxicity)
hAMSC donor 2 [2] = test: as above
hAMSC donor 1 [3] = test: transgenic luciferase activity (RLU/mg protein) fold change vs vehicle control (ratio); higher = more transgene expression
hAMSC donor 2 [4] = test: as above
hAMSC donor 1 [5] = test: transfection efficiency (EGFP+ cells / Hoechst count) fold change vs vehicle control (ratio); hAMSC are human adipose-derived mesenchymal stem cells given an EGFP-luciferase plasmid by lipofection; higher = enhanced transfection
hAMSC donor 2 [6] = test: as above
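Throughout, for Hoechst total cell count ratio vs vehicle control: compound added 30 min before Lipofectamine 3000 lipoplex delivery, triplicate-well means expressed against DMSO vehicle control wells of the same 96-well plate.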
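Throughout, for transfection efficiency (EGFP+ cells / Hoechst count) fold change vs vehicle control: compounds added 30 min before Lipofectamine 3000 lipoplex transfection, triplicate means relative to DMSO vehicle wells on the same plate, luciferase RLU normalized to BCA total protein.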
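Throughout, for transgenic luciferase activity (RLU/mg protein) fold change vs vehicle control: compounds in DMSO added 30 min before Lipofectamine 3000 transfection of pEGFP-Luc in 96-well plates, values are means of triplicate wells over DMSO vehicle wells on the same plate.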

Row | SMILES | Hoechst total cell count ratio (hAMSC donor 1 [1]) | Hoechst total cell count ratio (hAMSC donor 2 [2]) | transgenic luciferase activity (hAMSC donor 1 [3]) | transgenic luciferase activity (hAMSC donor 2 [4]) | transfection efficiency (hAMSC donor 1 [5]) | transfection efficiency (hAMSC donor 2 [6])
1 | C[N+]1(C)CCC(OC(=O)C(O)(c2ccccc2)C2CCCC2)C1 (centres undefined) [Glycopyrronium bromide] | 0.847 ± 0.07 | 1.13 ± 0.05 | 1.72 ± 0.48 | 1.94 ± 0.49 | 2.14 ± 0.26 | 1.49 ± 0.23
2 | COC(=O)C1=C(C)NC(C)=C(C(=O)OCC(C)C)C1c1ccccc1[N+](=O)[O-] (centres undefined) [Nisoldipine] | 1.38 ± 0.25 | 0.705 ± 0.088 | 0.823 ± 0.36 | 0.858 ± 0.31 | 0.74 ± 0.17 | 0.757 ± 0.22
3 | CN1CCN(C2=Nc3cc(F)ccc3Cc3ccccc32)CC1 [Fluperlapine] | 0.997 ± 0.14 | 0.852 ± 0.041 | 0.206 ± 0.16 | 0.577 ± 0.087 | 1.26 ± 0.33 | 0.873 ± 0.16
4 | CSc1nc2cc(Cl)c(Oc3cccc(Cl)c3Cl)cc2[nH]1 [Triclabendazole] | 1.14 ± 0.039 | 0.942 ± 0.17 | 0.468 ± 0.21 | 1.1 ± 0.49 | 0.989 ± 0.35 | 0.892 ± 0.21
5 | CC1(C)S[C@@H]2[C@H](NC(=O)COc3ccccc3)C(=O)N2[C@H]1C(=O)O [Penicillin V] | 0.938 ± 0.072 | 0.869 ± 0.1 | 0.548 ± 0.4 | 1.14 ± 0.15 | 0.958 ± 0.21 | 0.969 ± 0.16
6 | CCCCNc1cc(C(=O)O)cc(S(N)(=O)=O)c1Oc1ccccc1 [Bumetanide] | 1.12 ± 0.074 | 1.23 ± 0.08 | 2.99 ± 1.6 | 0.847 ± 0.072 | 1.05 ± 0.51 | 1.07 ± 0.36
7 | COc1cc(C)c(Cc2cnc(N)nc2N)cc1OC [Ormetoprim] | 1.07 ± 0.046 | 1.24 ± 0.3 | 0.907 ± 0.49 | 0.37 ± 0.079 | 1.34 ± 0.42 | 1.29 ± 0.43
8 | OCCOCCN1CCN(C2=Nc3ccccc3Sc3ccccc32)CC1 [Quetiapine fumarate] | 1.21 ± 0.092 | 1.08 ± 0.17 | 0.506 ± 0.072 | 1.21 ± 0.27 | 1.22 ± 0.3 | 1.08 ± 0.13
9 | O=C(c1ccccc1)c1ccc2n1CCC2C(=O)O (centres undefined) [Ketorolac tromethamine] | 1.12 ± 0.13 | 1.452 ± 0.01 | 0.602 ± 0.14 | 0.718 ± 0.06 | 0.866 ± 0.18 | 0.777 ± 0.09
10 | CCN(CC)CC1CCCCN1CC(=O)N1c2ccccc2C(=O)Nc2cccnc21 (centres undefined) [Otenzepad] | 1.2 ± 0.19 | 1.02 ± 0.051 | 0.188 ± 0.069 | 0.439 ± 0.17 | 0.89 ± 0.11 | 0.835 ± 0.065
11 | C=C[C@H]1CN2CC[C@H]1C[C@@H]2[C@@H](O)c1ccnc2ccc(OC)cc12 [Quinidine] | 1.29 ± 0.17 | 1.41 ± 0.27 | 0.348 ± 0.27 | 0.726 ± 0.23 | 1.13 ± 0.28 | 0.74 ± 0.14
12 | CC(C(=O)O)c1ccc(CC2CCCC2=O)cc1 (centres undefined) [Loxoprofen sodium] | 1.05 ± 0.27 | 1.05 ± 0.065 | 2.7 ± 1.6 | 0.475 ± 0.19 | 1.14 ± 0.13 | 1.23 ± 0.13
13 | CC(C)NCC(O)COc1cccc2ccccc12 (centres undefined) [Propranolol hydrochloride] | 0.948 ± 0.11 | 0.853 ± 0.11 | 2.36 ± 2.4 | 0.342 ± 0.054 | 1.08 ± 0.13 | 0.957 ± 0.14
14 | Nc1nc(N)nc(-c2cc(Cl)ccc2Cl)n1 [Irsogladine maleate] | 1.25 ± 0.22 | 1.23 ± 0.26 | 0.781 ± 0.15 | 0.649 ± 0.11 | 0.901 ± 0.13 | 1.2 ± 0.18
15 | c1ccc2c(CC3=NCCN3)cccc2c1 [Naphazoline hydrochloride] | 1.29 ± 0.093 | 1.42 ± 0.18 | 2.16 ± 1.9 | 0.639 ± 0.11 | 0.721 ± 0.1 | 0.724 ± 0.11
16 | Cc1onc(-c2ccccc2)c1-c1ccc(S(N)(=O)=O)cc1 [Valdecoxib] | 1.28 ± 0.2 | 1.26 ± 0.33 | 1.23 ± 0.3 | 0.224 ± 0.044 | 0.841 ± 0.084 | 1.05 ± 0.21
17 | OCCN1C[C@H](O)[C@@H](O)[C@H](O)[C@H]1CO [Miglitol] | 1.1 ± 0.017 | 1.07 ± 0.095 | 1.19 ± 0.63 | 1.08 ± 0.58 | 1.38 ± 0.29 | 1.07 ± 0.065
18 | O=C(O[C@@H]1C[C@@H]2C[C@H]3C[C@H](C1)N2CC3=O)c1c[nH]c2ccccc12 [Dolasetron mesylate] | 1.2 ± 0.026 | 1.28 ± 0.048 | 0.88 ± 0.094 | 1.19 ± 0.19 | 0.824 ± 0.11 | 1.35 ± 0.44
19 | C#C[C@]1(OC(C)=O)CC[C@H]2[C@@H]3CCC4=CC(=O)CC[C@@H]4[C@H]3CC[C@@]21C [19-Norethindrone acetate] | 1.34 ± 0.04 | 1.38 ± 0.14 | 1.26 ± 0.42 | 0.671 ± 0.1 | 0.578 ± 0.23 | 0.713 ± 0.19
20 | CCCCC(=O)N(Cc1ccc(-c2ccccc2-c2nnn[nH]2)cc1)[C@H](C(=O)O)C(C)C [Valsartan] | 1.77 ± 0.13 | 1.16 ± 0.051 | 0.262 ± 0.072 | 0.635 ± 0.12 | 0.844 ± 0.14 | 1.13 ± 0.075
21 | CC(=O)O[C@]1(C(C)=O)CC[C@H]2[C@@H]3C=C(C)C4=CC(=O)CC[C@]4(C)[C@H]3CC[C@@]21C [Megestrol acetate] | 1.57 ± 0.21 | 0.927 ± 0.2 | 1.38 ± 0.73 | 2.69 ± 0.26 | 2.57 ± 2.2 | 2.69 ± 1.5
22 | c1ccc2c(c1)CCCC2C1=NCCN1 (centres undefined) [Tetrahydrozoline hydrochloride] | 1.54 ± 0.14 | 1.37 ± 0.21 | 0.85 ± 0.39 | 0.273 ± 0.05 | 0.858 ± 0.055 | 1.22 ± 0.37
23 | NS(=O)(=O)c1cc2c(cc1C(F)(F)F)NC(Cc1ccccc1)NS2(=O)=O (centres undefined) [Bendrofluazide] | 0.985 ± 0.041 | 0.933 ± 0.18 | 1.18 ± 0.13 | 0.949 ± 0.36 | 0.638 ± 0.14 | 1.18 ± 0.2
24 | CC(Cc1ccccc1)(NC(=O)CN)c1ccccc1 (centres undefined) [Remacemide hydrochloride] | 1.58 ± 0.17 | 1.3 ± 0.1 | 1.3 ± 0.7 | 0.472 ± 0.0081 | 1.05 ± 0.15 | 0.586 ± 0.048
